target: LRRK2 (G2019S mutation, GST-LRRK2 (amino acids 970-2527)) (Homo sapiens, UniProt Q5S007, G2019S); test: LRRK2 Km ATP LanthaScreen Assay; conditions: IC50 (nM), mean IC50 of several tests, fluorescein LRRKtide substrate, TR-FRET

| IC50 [nM] | SMILES |
| --- | --- |
| 53 | c1cc(-c2n[nH]c3cnc(C4CC4)cc23)cc(N2CCOCC2)n1 [Example C1] |
| < 0.6 | COc1ccncc1-c1cc2c(-c3ccnc(N4CCOCC4)c3)n[nH]c2cn1 [Example B1.9] |
| 54.4 | CC(C)Oc1cc2c(-c3cc(N4CCN(S(C)(=O)=O)CC4)ncn3)n[nH]c2cn1 [Example Q1] |
| 3.8 | Cn1cc(-c2cc3c(-c4ccnc(N5CC(F)C5)c4)n[nH]c3cn2)cn1 [Example D2.1] |
| 1.2 | CO[C@H]1CCN(c2cc(-c3n[nH]c4cnc(-c5cccnc5)cc34)ccn2)C1 [Example B2.1] |
| 52.5 | COc1cc2c(-c3ccnc(N4CCOCC4)c3)n[nH]c2cn1 [Example F1] |
| 1.56 | CC1(Oc2cc3c(-c4ccnc(N5CCOCC5)c4)n[nH]c3cn2)CC1 [Example R1] |
| 29 | CC(C)Oc1cc2c(-c3cc(N4CCN(C5CC5)CC4)ncn3)n[nH]c2cn1 [Example Q2] |
| 2.1 | C[C@@H]1CN(c2cc(-c3n[nH]c4cnc(OC5(C)CC5)cc34)ncn2)C[C@H](C)O1 [Example P2] |
| 94.7 | CCCOc1cc2c(-c3ccnc(N4CCOCC4)c3)n[nH]c2cn1 [Example G3] |
| 121 | CC1CCCN1c1cc2c(-c3ccnc(N4CCOCC4)c3)n[nH]c2cn1 (stereo not drawn) [Example S3] |
| 2.1 | O[C@H]1CCN(c2cc(-c3n[nH]c4cnc(-c5cccnc5)cc34)ccn2)C1 [Example B1.4] |
| 139 | CN1CCN(c2cc(-c3n[nH]c4cnc(C5CC5)cc34)ccn2)CC1 [Example E3] |
| 382 | COc1ncc(F)cc1-c1cc2c(-c3ccnc(N4CCOCC4)c3)n[nH]c2cn1 [Example B1.11] |

same assay, conditions: LRRK2 IC50 (nM), mean IC50 of several tests, fluorescein LRRKtide substrate, TR-FRET

| IC50 [nM] | SMILES |
| --- | --- |
| 29 | CCN(CC)C1CCN(c2cc(-c3n[nH]c4cnc(OC(C)C)cc34)ccn2)C1 (stereo not drawn) [Example J13] |
| 16 | CC(C)Oc1cc2c(-c3ccnc(N4CCN(CCO)CC4)c3)n[nH]c2cn1 [Example J6] |
| 143 | CC(C)Oc1cc2c(-c3ccnc(N4CCC(F)(F)CC4)c3)n[nH]c2cn1 [Example J27] |
| 31 | CC(C)Oc1cc2c(-c3ccnc(N4CCC(O)C4)c3)n[nH]c2cn1 (stereo not drawn) [Example J11] |
| 34 | Cc1oncc1S(=O)(=O)N1CCN(c2cc(-c3n[nH]c4cnc(OC(C)C)cc34)ccn2)CC1 [Example K6] |
| 51 | CC(C)Oc1cc2c(-c3ccnc(N4CCN(c5ncccn5)CC4)c3)n[nH]c2cn1 [Example J12] |
| 88 | CC(C)Oc1cc2c(-c3ccnc(N4CCN(Cc5cccc(C#N)c5)CC4)c3)n[nH]c2cn1 [Example M5] |
| 180 | CC(C)Oc1cc2c(-c3cc(N(C)Cc4cccnc4)ncn3)n[nH]c2cn1 [Example N7] |
| 100 | CC(C)Oc1cc2c(-c3ccnc(N4CC(n5cnnc5)C4)c3)n[nH]c2cn1 [Example J37] |
| 135 | CC(C)Oc1cc2c(-c3ccnc(N4CCn5cc(C(F)(F)F)nc5C4)c3)n[nH]c2cn1 [Example J26] |
| 71 | CC(C)Oc1cc2c(-c3cc(N4CCC(F)(F)CC4)ncn3)n[nH]c2cn1 [Example N18] |
| 20 | CC(C)Oc1cc2c(-c3ccnc(N4CCC(c5cnccn5)CC4)c3)n[nH]c2cn1 [Example J30] |
| 45 | COc1cnc(C(=O)N2CCN(c3cc(-c4n[nH]c5cnc(OC(C)C)cc45)ccn3)CC2)cn1 [Example L2] |
| 43 | CC(C)Oc1cc2c(-c3cc(N4CCC(O)CC4)ncn3)n[nH]c2cn1 [Example N1] |
| 40 | CC(C)Oc1cc2c(-c3ccnc(N4CCC(C)(O)C4)c3)n[nH]c2cn1 (stereo not drawn) [Example J32] |
| 111 | CC(C)CCN1CCN(c2cc(-c3n[nH]c4cnc(OC(C)C)cc34)ccn2)CC1 [Example M1] |
